Assay results published in PubChem BioAssay AID1656 (Sanford-Burnham Center for Chemical Genomics, 2009).
The other results are listed elsewhere or left out. Shown are side measurements of this screen, not its main read-out; they come without a call. Compounds called inactive in the main read-out are mostly missing here.

Assay: oleate-induced lipid droplet accumulation in AML12 cells – imaging, high-throughput imaging, BODIPY stain, primary screen (AID 1656);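 also: cells counted across two imaged fields per well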
Conditions: AML12 mouse hepatocytes, oleate lipid droplets, measured here: cell count, cytotoxicity flag, at 6.5 µM
How it was run: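 Assay system: AML12 hepatocytes (mouse); Probe or stimulus: oleic acid at 100 µM to induce lipid droplet formation; Dosing: compound at 6.5 µM only; Schedule: compound with oleate, overnight; Detection: fluorescence imaging, 20x objective, two fields per well; Measure: % inhibition of lipid droplet signal.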

Row | SMILES | cell count
1 | Cc1ccc(-c2nnc(OCc3cccnc3)c3ccccc23)cc1 | 651 cells
2 | O=S1(=O)N=C(Oc2cccc3ccccc23)c2ccccc21 | 734 cells
3 | COc1ccc(C(C(=O)NC(C)(C)C)N(CC2CCCO2)C(=O)CCC(=O)Nc2cc(C)on2)cc1 (stereo unspecified) | 769 cells
4 | CCn1c(=O)n(CC)c2cc(N)ccc21 | 760 cells
5 | CCOC(=O)n1cc(-c2cnc(CNC(=O)C(C)(c3ccccc3)c3ccccc3)o2)c2ccccc21 | 704 cells
6 | COc1cccc(-c2cc(C(=O)Nc3ccc([N+](=O)[O-])cn3)c3ccccc3n2)c1 | 635 cells
7 | CCOc1ccc(C2=Nc3ccc(Br)cc3C(c3ccc(N4CCOCC4)cc3)=NN2)cc1 | 669 cells
8 | CCOc1ccc(CCNC(=O)CN2C(=O)c3cccnc3Oc3ccc(C)cc32)cc1OCC | 869 cells
9 | COc1ccc(NC(=O)[C@H](C)NC(=O)[C@@H]2Cc3ccccc3CN2C(=O)OC(C)(C)C)cc1 | 701 cells
10 | CS(=O)(=O)N(CC(=O)Nc1ccccc1Br)Cc1ccccc1 | 791 cells
11 | COc1ccc(CCNC(=O)c2ccc(CNc3nc(=S)[nH]c4ccccc34)cc2)cc1OC | 681 cells
12 | CCCCOc1ccccc1C(=O)N(Cc1ccc(C)o1)C1CCS(=O)(=O)C1 (stereo unspecified) | 683 cells
13 | Cc1ccc(C2=NC3(CCCCC3)N=C2SCC(=O)Nc2ccc3c(c2)OCCO3)cc1 | 720 cells
14 | N#CC1=C(N)OC2=C(CCc3ccccc32)C1c1ccccc1Cl (stereo unspecified) | 218 cells
15 | CCCC(=O)Nc1cccc(C(=O)Nc2ccccc2OCC)c1 | 736 cells
16 | Nc1cc2c3c(cccc3c1)C(=O)N(CCN1CCCC1)C2=O | 298 cells
17 | CCOc1ccc(NC(=O)CSc2nc3ccccc3nc2N2CCCC2)cc1 | 806 cells
18 | CC(Sc1nnc(Nc2ccccc2)s1)C(=O)Nc1nc(-c2ccccc2)cs1 (stereo unspecified) | 675 cells
19 | CSc1nc(N(C)NC(=O)c2ccccc2)c2ccccc2n1 | 189 cells
20 | COc1ccc2c(c1)c(CC(=O)Nc1ccccc1OC)c(C)n2C(=O)c1ccc(Cl)cc1 | 644 cells
21 | COc1ccccc1N=C(C)C1=C(O)CC(c2ccccc2)CC1=O (stereo unspecified) | 153 cells
22 | O=C(NC1=C(Nc2ccc(F)cc2)C(=O)c2ccccc2C1=O)c1ccc(Cl)cc1 | 273 cells
23 | COC(=O)Cn1c(=NC(=O)c2sc3ccccc3c2Cl)sc2cc(S(N)(=O)=O)ccc21 | 290 cells
24 | CCOC(=O)c1cc(-c2ccc(F)cc2)n(CC(=O)NC(C)CC)c1C (stereo unspecified) | 749 cells
25 | O=C(c1ccc(S(=O)(=O)Nc2cccc(C(F)(F)F)c2)cc1)N1CCOCC1 | 792 cells
26 | CCCOc1ccc(C(=O)OCC(=O)NCCc2ccc(OCC)c(OCC)c2)cc1OC | 697 cells

Row | SMILES | cell count
27 | CCOC(=O)C1=NN(c2ccccc2)C2=NC(C)=C(C(=O)OC)C(c3ccc(C)cc3)N12 (stereo unspecified) | 289 cells
28 | CCOc1ccc(CCNC(=O)CCC(=O)N2CCOc3ccccc32)cc1OCC | 761 cells
29 | CCCCOc1ccc(/C=C/C(=O)OCC(=O)c2c(N)n(C)c(=O)n(C)c2=O)cc1OCC | 670 cells
30 | CCc1ccc(NC(=O)CNC(=O)[C@@H]2Cc3ccccc3CN2C(=O)OC(C)(C)C)cc1 | 656 cells
31 | O=C(/C=C/c1cccs1)Nc1ccc(Br)cn1 | 237 cells
32 | COc1cc(C2=NOC(C(=O)NCc3ccc(F)cc3)C2)cc(OC)c1OC (stereo unspecified) | 296 cells
33 | O=C(NC1CCCCC1)C(c1cccnc1)N(C(=O)CCl)c1ccc(F)cc1 (stereo unspecified) | 36 cells
34 | COc1cc2ncnc(NCc3cccs3)c2cc1OC | 500 cells
35 | Cc1cc(C(=O)CN2C(=O)c3ccccc3S2(=O)=O)c(C)n1-c1ccccc1 | 823 cells
36 | Cc1ccc(N2C(=O)c3ccccc3NC2(C(=O)O)c2ccccc2)cc1Cl (stereo unspecified) | 852 cells
37 | CN(C1=C(N2CCCCC2)C(=O)c2ccccc2C1=O)c1ccccc1 | 735 cells
38 | COc1ccc(/C=N/N=C2\SCC(=O)N2c2c(C)n(C)n(-c3ccccc3)c2=O)cc1OC | 688 cells
39 | CCOC(=O)C1CCN(C(=O)C2(NC(=O)Nc3ccccc3C)CCCCC2)CC1 | 800 cells
40 | CC(=O)c1c(C)[nH]c(C(=O)Nc2nc(-c3ccc(-c4ccccc4)cc3)cs2)c1C | 667 cells
41 | CCCCCCn1c(N2CCN(c3ccccc3)CC2)nc2c1c(=O)[nH]c(=O)n2C | 742 cells
42 | CS(=O)(=O)N(CC(=O)Nc1ccc2c(c1)OCO2)Cc1ccccc1 | 705 cells
43 | CCOC(=O)c1c(C)[nH]c(C)c1S(=O)(=O)N1CCN(c2ccc([N+](=O)[O-])cc2)CC1 | 744 cells
44 | O=C(Nc1ccc(Br)cc1)c1cccc(OC(=S)N2CCOCC2)c1 | 823 cells
45 | COc1ccccc1N1CCN(C(=O)CSc2nc3ccccc3nc2N2CCC(C)CC2)CC1 | 817 cells
46 | CCOc1ccc(CCNC(=O)C2CCN(S(=O)(=O)N3CCCCC3)CC2)cc1OCC | 757 cells
47 | CSc1ccc(CN2CCN(C3CCCC3)C(CCO)C2)cc1 (stereo unspecified) | 757 cells
48 | COc1cccc(NC(=O)CN(Cc2ccccc2)S(C)(=O)=O)c1 | 640 cells
49 | COc1ccc(C(C(=O)NC(C)(C)C)N(CCC(C)C)C(=O)CCC(=O)Nc2cc(C)on2)cc1 (stereo unspecified) | 800 cells
50 | CC(=O)c1ccc(N2CCCC2)c(F)c1 | 838 cells
51 | COc1ccc(Cl)cc1NC(=O)CN(C)CC(=O)Nc1ccccc1N1CCOCC1 | 271 cells
